According to PubChem BioAssay AID504339 (National Center for Advancing Translational Sciences (NCATS), 2011):
In all, about 390,000 compounds went through this assay and about 17,000 (4.4%) were called active. Inconclusive means that the source gave no clear call. Such entries were picked first, then a sample of the others. Calls come from the whole dose curve; as a rule, active = well fitted inhibition curve with a large enough effect; inconclusive = small, poorly fitted or top-dose-only effect; inactive = no such curve, though single readings can be large or run the other way. Potencies of inconclusive entries are doubtful fits and often do not repeat.

Molecular target: Lysine-specific demethylase 4A (Homo sapiens) (UniProt O75164)
Chain of UniProt O75164 (O75164 whole entry, looked up, the tested form may be a part): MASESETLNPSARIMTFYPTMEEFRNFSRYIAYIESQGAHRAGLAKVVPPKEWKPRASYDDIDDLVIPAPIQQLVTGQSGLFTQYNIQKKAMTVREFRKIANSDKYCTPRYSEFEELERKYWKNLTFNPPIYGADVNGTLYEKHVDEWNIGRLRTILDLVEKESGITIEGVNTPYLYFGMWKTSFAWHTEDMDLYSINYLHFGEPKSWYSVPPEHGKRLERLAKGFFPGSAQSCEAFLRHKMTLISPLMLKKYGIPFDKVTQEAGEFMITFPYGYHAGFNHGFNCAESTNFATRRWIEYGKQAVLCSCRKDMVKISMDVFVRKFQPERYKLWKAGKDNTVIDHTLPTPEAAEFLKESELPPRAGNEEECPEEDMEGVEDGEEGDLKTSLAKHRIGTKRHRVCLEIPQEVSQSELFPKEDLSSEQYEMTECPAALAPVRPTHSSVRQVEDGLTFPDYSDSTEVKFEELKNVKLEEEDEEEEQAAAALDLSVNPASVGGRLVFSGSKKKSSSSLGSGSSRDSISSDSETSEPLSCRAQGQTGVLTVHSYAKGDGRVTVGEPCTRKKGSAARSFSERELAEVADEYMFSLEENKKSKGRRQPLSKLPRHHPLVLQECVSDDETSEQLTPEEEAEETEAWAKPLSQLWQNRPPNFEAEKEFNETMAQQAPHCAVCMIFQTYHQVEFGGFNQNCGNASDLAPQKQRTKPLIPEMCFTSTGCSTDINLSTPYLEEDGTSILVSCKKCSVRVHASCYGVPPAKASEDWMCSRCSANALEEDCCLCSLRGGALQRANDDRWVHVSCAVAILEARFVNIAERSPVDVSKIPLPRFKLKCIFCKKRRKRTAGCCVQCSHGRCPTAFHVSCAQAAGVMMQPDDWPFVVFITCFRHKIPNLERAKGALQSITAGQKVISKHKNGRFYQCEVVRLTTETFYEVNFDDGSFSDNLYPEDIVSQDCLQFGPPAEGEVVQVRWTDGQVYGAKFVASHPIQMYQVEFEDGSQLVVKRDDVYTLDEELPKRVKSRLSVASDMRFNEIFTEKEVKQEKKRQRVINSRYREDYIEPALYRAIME
Test: qHTS Assay for Inhibitors of JMJD2A-Tudor Domain; note: nearly all actives have a fitted effect of over 50% in size
Conditions: AlphaScreen JMJD2A-Tudor / H3K4me3 peptide binding; activity change, negative = inhibition: at 114 µM (top of the series)
% is set by controls: 0 for no effect and ±100 for the full control effect; potency is the fitted concentration of half-maximal effect; tags give direction and shape of the fitted curve.

| SMILES | Potency | activity change, negative = inhibition |
| --- | --- | --- |
| CN(C(=O)CCc1ccccc1F)C1CCCN(Cc2ccccc2F)C1 (configuration not stated) | active: 10 µM |  |
| CN1CCN(C(=S)Nc2cc([N+](=O)[O-])ccc2Cl)CC1 | inconclusive: 31.6 µM [inhibitor, single point] |  |
| CCN(CC)c1ccc(NC(=O)/C=C\c2ccccc2Cl)cc1 | inconclusive: 17.8 µM [inhibitor, full curve] |  |
| Cc1ccc(COc2ccc3c(c2)OCO3)cc1 | inconclusive: 50.1 µM [inhibitor, partial curve] |  |
| COc1ccc(N2C(=O)[C@@H]3[C@H](C2=O)[C@H]2C=CC=NN2[C@@H]3C(=O)Nc2ccc(Cl)cc2)cc1 | inconclusive: 79.4 µM [inhibitor, partial curve] |  |
| CNC(=O)/C(C#N)=C/c1c(N(Cc2ccccc2)Cc2ccccc2)nc2c(C)cccn2c1=O | inconclusive: 28.2 µM [inhibitor, single point] |  |
| Cc1cccc(N=C2NC(=O)/C(=C/C=C/c3ccco3)S2)c1 | active: 17.8 µM |  |
| COc1ccc(N2CCN(CC(O)COc3ccc([N+](=O)[O-])cc3)CC2)cc1 (configuration not stated) | inconclusive: 22.4 µM [inhibitor, partial curve] |  |
| CC1(c2ccc(Cl)cc2)NC(=O)N(CC(=O)Nc2ccc(N3CCCCC3)cc2)C1=O (configuration not stated) | inconclusive: 39.8 µM [inhibitor, partial curve] |  |
| Cc1cc(=O)[nH]c(SCC(=O)Nc2cccc3ccccc23)c1C#N |  | inactive: -24.4% |
| CCCc1cnc2c(c1SCC(=O)Nc1ccc(C)c(Cl)c1)c(=O)n(C)c(=O)n2C |  | inactive: 1.95% |
| Cc1ccc(C(=O)/C=C/Nc2ccc(S(=O)(=O)Nc3onc(C)c3C)cc2)cc1 | inconclusive: 44.7 µM [inhibitor, single point] |  |
| CCOC(=O)N1CCC(NCCNC(=O)c2cccs2)CC1 | active: 1.78 µM |  |
| COc1cccc(Cn2c(CNC(=O)c3cc([N+](=O)[O-])ccc3Cl)nc3cccnc32)c1 |  | inactive: -26.5% |
| COc1ccc(NC(=O)CO/N=C/C(=O)Nc2ccccc2C)c([N+](=O)[O-])c1 | inconclusive: 39.8 µM [inhibitor, partial curve] |  |
| O=C(O)c1ccc2c(c1)C(=O)N(c1ccc(Nc3ccccc3)cc1)C2=O |  | inactive: -33.6% |
| COc1ccc2c(c1)c(C(=O)CN1CCc3ccccc3C1)c(C)n2C | inconclusive: 63.1 µM [inhibitor, partial curve, poor fit] |  |
| C=CCc1c(C)nc(N2CCSCC2)[nH]c1=O | inconclusive: 89.1 µM [inhibitor, single point] |  |
| Cn1c(SCC(=O)N2CCN(c3ccccc3)CC2)nnc1-c1ccccc1 |  | inactive: -8.28% |
| CN(C)S(=O)(=O)c1ccc(C(=O)Nc2nnc(-c3ccco3)o2)cc1 | active: 89.1 µM |  |
| C/C(=N\Nc1ccccn1)c1ccc(S(=O)(=O)NCc2ccco2)cc1 |  | inactive: -30.1% [at 57.1 µM] |
| CC(=O)c1ccc(NC(=O)c2sc(-n3nc(C)c(Cc4ccccc4)c3C)nc2C)cc1 |  | inactive: -9.6% |
| COc1ccc(C(N)c2nccc3cc(OC)c(OC)cc23)cc1OC (configuration not stated) | active: 56.2 µM |  |
| Cc1ccc2c(c1)N(C(=O)CCC(=O)NCc1ccccc1Cl)CC(C)O2 (configuration not stated) |  | inactive: -22.8% |

| SMILES | Potency | activity change, negative = inhibition |
| --- | --- | --- |
| Cc1c(C(=O)Oc2cccc3cccnc23)cccc1[N+](=O)[O-] | active: 44.7 µM |  |
| COc1ccc(OC)c2cc3ccccc3cc12 | inconclusive: 44.7 µM [inhibitor, partial curve, poor fit] |  |
| Cc1cccc(N2CCN(C(=O)c3cc4cc(F)ccc4[nH]3)CC2)c1C |  | inactive: -25.8% |
| COc1cccc(N2CCN(C(=O)c3cc4c(s3)CCCCC4)CC2)c1 | inconclusive: 39.8 µM [inhibitor, full curve, poor fit] |  |
| O=C1c2ccccc2NC(c2ccc(Br)o2)N1O (configuration not stated) | active: 79.4 µM |  |
| COc1ccc2c(CCNC(=O)c3ccc([N+](=O)[O-])cc3)c[nH]c2c1 | inconclusive: 25.1 µM [inhibitor, partial curve] |  |
| Cc1cccc(NC(=S)NNC(=O)c2ccc(O)cc2O)c1C | inconclusive: 28.2 µM [inhibitor, partial curve] |  |
| CCCC(=O)Nc1sc(C)c(C)c1C(=O)Nc1cccc(C)c1 |  | inactive: -7.33% |
| Nc1ccc(N2CCN(c3ccc(F)cc3)CC2)cc1 | inconclusive: 56.2 µM [inhibitor, partial curve] |  |
| COCCCNC(=O)c1ccc2c(c1)N(Cc1ccccc1)C(=O)c1ccccc1S2 | inconclusive: 50.1 µM [inhibitor, partial curve] |  |
| Cn1ncc2c(O/N=C(\N)c3ccc(C(F)(F)F)cc3)ncnc21 |  | inactive: -12.3% |
| COc1ccc(NCC(=O)n2c(C)c(C)c3ccccc32)cc1 |  | inactive: -32.8% |
| Cc1nn(-c2ccccc2)c(Cl)c1/C=C1\SC(=S)N(CCCCCC(=O)O)C1=O | inconclusive: 44.7 µM [inhibitor, partial curve] |  |
| CC1(C)CC(=O)CC(C)(C)N1OC(=O)c1ccccn1 |  | inactive: 13.5% |
| CCOC(=O)CN(Cc1cc(OC)cc(N(C)C)c1OC)C(=O)C1CC(CO[Si](C)(C)C(C)(C)C)=CN1C(=O)OC(C)(C)C (configuration not stated) | inconclusive: 39.8 µM [inhibitor, full curve] |  |
| COc1ccccc1Nc1nn2c(=O)c3ccc(C(=O)N4CCCC(C)C4)cc3nc2s1 (configuration not stated) | inconclusive: 50.1 µM [inhibitor, partial curve] |  |
| CCCCCCCCNC(=S)NCCN1CCCCC1 | active: 79.4 µM |  |
| O=C(c1cc(-c2ccncc2)nc2ccc(Cl)cc12)N1CCN(Cc2ccc3c(c2)OCO3)CC1 | inconclusive: 28.2 µM [inhibitor, full curve] |  |
| COc1ccc(C2CC(=O)N(Cc3cccc(F)c3)c3ccccc3S2)cc1 (configuration not stated) |  | inactive: 13.5% |
| N/C(=N\NC(=O)c1cccs1)c1cc2cc(Cl)ccc2oc1=O | inconclusive: 39.8 µM [inhibitor, partial curve] |  |
| COc1ccc(N2CCN(Cc3nc4ccsc4c(=O)[nH]3)CC2)cc1 | active: 56.2 µM |  |
| CC1(C)CC(=O)N(c2cc(Cl)ccc2Cl)C(=O)C1 |  | inactive: -14.6% |
| Cc1cc(/C=N\NC(=O)c2cccs2)c(C)n1-c1ccc2ncccc2c1 | inconclusive: 56.2 µM [inhibitor, partial curve] |  |
